# Results taken from publication PMC4336329 (PLoS ONE, 2015).
# About 14,000 (4.5%) of roughly 310,000 compounds showed an effect of 50% or more. The effect is printed as a negative number. The list shows a part of the results.
# Target: human ether-à-go-go-related gene (hERG) potassium channel (human, UniProt Q12809)
# Experiment: primary screen, population patch clamp on CHO cells stably expressing hERG
# 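Note: peak tail current of the secondary pulse compared with the same well before compound.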
# Sequence of human ether-à-go-go-related gene (hERG) potassium channel (Q12809 whole entry, looked up): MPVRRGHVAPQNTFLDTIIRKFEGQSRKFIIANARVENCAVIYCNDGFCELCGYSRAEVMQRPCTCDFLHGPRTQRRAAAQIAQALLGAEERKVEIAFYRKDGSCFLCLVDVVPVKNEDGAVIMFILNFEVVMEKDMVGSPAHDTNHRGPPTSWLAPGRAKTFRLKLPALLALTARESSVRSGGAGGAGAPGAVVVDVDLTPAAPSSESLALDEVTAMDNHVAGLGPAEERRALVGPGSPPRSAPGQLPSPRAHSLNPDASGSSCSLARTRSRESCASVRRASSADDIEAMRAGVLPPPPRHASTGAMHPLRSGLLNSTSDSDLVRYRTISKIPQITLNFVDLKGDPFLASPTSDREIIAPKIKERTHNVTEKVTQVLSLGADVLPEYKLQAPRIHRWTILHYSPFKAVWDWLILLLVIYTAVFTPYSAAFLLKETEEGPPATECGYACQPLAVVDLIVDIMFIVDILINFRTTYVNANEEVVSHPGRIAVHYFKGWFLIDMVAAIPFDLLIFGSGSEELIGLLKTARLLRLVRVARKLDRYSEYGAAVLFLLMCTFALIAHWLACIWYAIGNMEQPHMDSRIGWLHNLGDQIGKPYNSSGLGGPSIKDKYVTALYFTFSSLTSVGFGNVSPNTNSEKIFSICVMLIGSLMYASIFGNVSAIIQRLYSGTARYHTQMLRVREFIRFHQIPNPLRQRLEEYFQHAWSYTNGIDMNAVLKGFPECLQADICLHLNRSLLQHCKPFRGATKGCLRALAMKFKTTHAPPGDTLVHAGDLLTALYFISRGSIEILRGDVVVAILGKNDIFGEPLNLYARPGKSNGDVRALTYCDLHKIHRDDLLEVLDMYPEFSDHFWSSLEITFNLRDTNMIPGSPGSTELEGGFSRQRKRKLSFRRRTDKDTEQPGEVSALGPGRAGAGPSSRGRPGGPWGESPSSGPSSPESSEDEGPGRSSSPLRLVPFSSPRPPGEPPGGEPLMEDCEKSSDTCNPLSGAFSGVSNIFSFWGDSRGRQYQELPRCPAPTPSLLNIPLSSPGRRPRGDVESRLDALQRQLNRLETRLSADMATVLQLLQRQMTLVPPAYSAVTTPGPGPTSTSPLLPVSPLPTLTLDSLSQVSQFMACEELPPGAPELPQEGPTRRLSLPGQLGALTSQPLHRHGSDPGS
row,SMILES,"hERG current change (%, negative = inhibition) at 10uM"
1,Cc1c(-c2ccc(F)cc2)[n+](=O)c(-c2ccc(F)cc2)c(C)n1[O-],13.5%
2,Cc1ccc2c(c1)cc1c(=O)n(CC(=O)NCCN3CCCC3)nc(C)n12,-3.34%
3,Br.COc1ccc(C2=CSC3=NCCN23)cc1OC,-6.58%
4,CN(C)c1ccnc(-n2cccc2/C=N/O)c1C#N,14.3%
5,COC(=O)[C@@H]1C[C@@]1(C)[C@@H](NP(=O)(c1ccccc1)c1ccccc1)c1ccccc1,4.33%
6,Cc1cc(-c2n[nH]c(=S)o2)c(C)n1-c1ccccc1,4.79%
7,O=C(CSc1nc2ncccc2[nH]1)c1cccc([N+](=O)[O-])c1,-6.11%
8,OC(C[n+]1ccccc1)c1ccccc1.[Br-] (stereo not shown),18.7%
9,Brc1ccc(-c2cn3nc4c(nc3n2)CCCC4)cc1,-31.4%
10,COC(=O)c1ccc(CNC(=O)C2CCC(=O)N(CCCc3ccccc3)C2)cc1 (stereo not shown),-29.4%
11,COc1ccc(S(=O)(=O)N2CCCCCC2)cc1NC(=O)c1ccccc1F,3.54%
12,Cc1cc(N)ccc1S(C)(=O)=O,9.43%
13,CC(=O)Nc1ccc(NC(=O)COC(=O)c2cnccn2)cc1,18.3%
14,COc1ccc(CN2CCCC(C(=O)c3ccc(Cl)cc3)C2)c(O)c1 (stereo not shown),-67.7%
15,CCOC(=O)C(=O)NC12CC3CC(CC(C3)C1)C2,29.5%
16,CCOP1(=O)C=C(C(C)(C)C)OC1c1ccc(F)cc1 (stereo not shown),0.676%
17,CC1CCN(C(=O)C(C)Sc2nc(-c3ccccc3)cc(C(F)(F)F)n2)CC1 (stereo not shown),-3.04%
18,CN1CCC(NC(=O)Nc2cccc(C(F)(F)F)c2)CC1,-0.705%
19,Cc1nc2ccccc2n1CCOc1ccccc1,6.17%
20,COc1ccccc1NC(=O)Cc1csc(NC(=S)Nc2ccccc2)n1,10.4%
21,O=C(NCc1ccc2c(c1)OCO2)c1ccc(-n2cnnn2)cc1,-19.9%
22,CCCc1cc(C(=O)Nc2c(C)n(C)n(-c3ccccc3)c2=O)no1,6.88%
23,Cc1cc2cc(CN(CC3CCCO3)C(=S)Nc3ccccc3)c(=O)[nH]c2cc1C (stereo not shown),-14.8%
24,COc1ccc(CC(=O)OC(C)C(=O)c2ccc(C)cc2)cc1 (stereo not shown),20.4%
25,O=C(Oc1ccc(Br)cc1C(=S)N1CCOCC1)c1ccc(F)cc1,9.32%
26,O=C(CCCC1=NS(=O)(=O)c2ccccc2N1)N1CCN(c2ccccc2)CC1,-1.79%
27,COc1cc(C(=O)NCc2nnc(SCC(=O)Nc3cc(C)cc(C)c3)o2)cc(OC)c1OC,4.31%
28,CCCCCCNC(=O)N[C@H](C(=O)NCCC[C@H]1CN2C(=NC[C@H]2C)N1CCC(c1ccccc1)c1ccccc1)C(C)O (stereo partly shown),3.37%

row,SMILES,"hERG current change (%, negative = inhibition) at 10uM"
1,N#CC1=C(N)C2=CCCC[C@H]2[C@H](c2ccccc2)C1(C#N)C#N,5.83%
2,CCOC(=O)c1cnc(-n2nc(C)cc2C)nc1NCCO,10.5%
3,CCOC(=O)CN1CC23C=CC(O2)C(C(=O)Nc2ccc4c(c2)OCO4)C3C1=O (stereo not shown),4.95%
4,CCOc1ccc(NCc2cccn2-c2nnc(N3CCC(C(=O)NCCCN4C(C)CCCC4C)CC3)s2)cc1 (stereo not shown),-69.3%
5,O=C(Nc1c(C(=O)N2CCCCC2)cnn1-c1ccccc1)c1ccccc1,4.36%
6,CC1CCCCN1CCCNC(=O)Cn1ncc2c([nH]c3ccccc32)c1=O (stereo not shown),20.6%
7,CCOc1cc(S(=O)(=O)NCCCN2CCOCC2)ccc1F,3.16%
8,COC(=O)c1ccc(/C=N/NC(=O)CC(=O)NCc2cccnc2)cc1,1.16%
9,Cc1ccc(CN(C)C(=O)C2CCCN2C(=O)c2cccs2)o1 (stereo not shown),-4.28%
10,O=C(Nc1ccc(F)cc1)C(c1ccccc1)N1CCN(S(=O)(=O)c2ccccc2)CC1 (stereo not shown),-5.63%
11,COc1ccc(-c2cc(N)n(S(=O)(=O)c3c(F)c(F)c(F)c(F)c3F)n2)cc1OC,-10.3%
12,O=C(Nc1nnc(SCc2ccccn2)s1)C1CC(=O)N(c2ccc(F)cc2)C1 (stereo not shown),-13.3%
13,COc1ccc(Nc2nc(N)nc(CN3CCc4ccccc4C3)n2)cc1,-56.4%
14,Cl.N/N=c1\sc2ccccc2n1-c1ccccc1,2.94%
15,C=CCOC(=O)C1=C(C)N(C)C(=O)NC1c1cc2c(cc1Br)OCO2 (stereo not shown),-5.15%
16,CN1CCN(c2ccc(NS(=O)(=O)c3ccc(Cl)cc3)cn2)CC1,-40.2%
17,CCCS(=O)c1nc(C)cc(C)c1S(C)(=O)=O (stereo not shown),11.3%
18,CCCCC(=O)N(Cc1ccc2c(c1)OCO2)Cc1nc2ccccc2c(=O)[nH]1,-4.23%
19,Cc1ccc(N(CC(=O)NCCc2ccc(Cl)cc2)S(=O)(=O)c2c(C)noc2C)cc1,8.71%
20,COc1ccc(OCC(=O)N2CCC3(CC2)CC(=O)c2ccccc2O3)cc1,-88.9%
21,Cc1ccc(C)c(NC(=O)C2CCCN(S(=O)(=O)c3c(C)noc3/C=C/N(C)C)C2)c1 (stereo not shown),8.52%
22,S=c1[nH]nc(-c2cnccn2)n1-c1ccccc1,16%
23,COCCN(C(=S)Nc1cccc(C)c1)C(C)c1cccs1 (stereo not shown),7.09%
24,O=C(C1=C[C@H](C2CCCCC2)C[C@H](OCc2ccc(CO)cc2)O1)N1CCN(Cc2ccc3c(c2)OCO3)CC1,-18.3%
25,O=C(NCCCn1ccnc1)/C(=C\c1cccs1)NC(=O)c1cccs1,-62%
26,COc1ccc(Cl)cc1NC(=O)CCc1nnc2ccc(N3CCC4(CC3)OCCO4)nn12,22.8%
27,Cc1nc2cc(NC(=O)Nc3ccc(Br)cc3)ccc2o1,9.81%
